Measurements as given in the supplement of paper PMC8728848.
This is one part of the list.

How the values were obtained:
Assay in all cases: glycan array binding signal (z-score within array); higher = stronger binding
Details in all cases: glycan notation: IUPAC condensed, linker removed
[1] = target: Neu5Ac(a2-3)Gal(b1-3)GalNAc
How it was run: (§1)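 The Consortium for Functional Glycomics database supplied 3228 glycan arrays, of which those lacking an available protein sequence were dropped. The binding signal, a within-array Z-score, was averaged across arrays of the same protein sequence and across linkers. Negative scores can be read as non-binding.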

[2] = target: Neu5Ac(a2-3)Gal(b1-3)GalNAc(b1-3)Gal(a1-4)Gal(b1-4)Glc
How it was run: as §1

[3] = target: Neu5Ac(a2-3)Gal(b1-3)GalNAc(b1-4)[Neu5Ac(a2-3)]Gal(b1-4)Glc
How it was run: as §1

[4] = target: Neu5Ac(a2-3)Gal(b1-3)GalNAc(b1-4)[Neu5Ac(a2-8)Neu5Ac(a2-3)]Gal(b1-4)Glc
How it was run: as §1

[5] = target: Neu5Ac(a2-3)Gal(b1-3)GalNAc6S
How it was run: as §1

[6] = target: Neu5Ac(a2-3)Gal(b1-3)GlcNAc
How it was run: as §1

[7] = target: Neu5Ac(a2-3)Gal(b1-3)GlcNAc(b1-2)Man
How it was run: as §1

[8] = target: Neu5Ac(a2-3)Gal(b1-3)GlcNAc(b1-2)Man(a1-3)[GlcNAc(b1-4)][Neu5Ac(a2-3)Gal(b1-3)GlcNAc(b1-2)Man(a1-6)]Man(b1-4)GlcNAc(b1-4)GlcNAc
How it was run: as §1

[9] = target: Neu5Ac(a2-3)Gal(b1-3)GlcNAc(b1-2)Man(a1-3)[Neu5Ac(a2-3)Gal(b1-3)GlcNAc(b1-2)Man(a1-6)]Man(b1-4)GlcNAc(b1-4)GlcNAc
How it was run: as §1

[10] = target: Neu5Ac(a2-3)Gal(b1-3)GlcNAc(b1-3)Gal(b1-3)GlcNAc
How it was run: as §1

[11] = target: Neu5Ac(a2-3)Gal(b1-3)GlcNAc(b1-3)Gal(b1-4)GlcNAc
How it was run: as §1

[12] = target: Neu5Ac(a2-3)Gal(b1-3)GlcNAc(b1-3)GalNAc
How it was run: as §1

[13] = target: Neu5Ac(a2-3)Gal(b1-3)GlcNAc(b1-4)Gal(b1-4)Glc
How it was run: as §1

[14] = target: Neu5Ac(a2-3)Gal(b1-3)GlcNAc(b1-6)GalNAc
How it was run: as §1

[15] = target: Neu5Ac(a2-3)Gal(b1-3)GlcNAc6S
How it was run: as §1

[16] = target: Neu5Ac(a2-3)Gal(b1-3)[Fuc(a1-4)]GlcNAc
How it was run: as §1

[17] = target: Neu5Ac(a2-3)Gal(b1-3)[Fuc(a1-4)]GlcNAc(b1-3)Gal(b1-3)[Fuc(a1-4)]GlcNAc
How it was run: as §1

[18] = target: Neu5Ac(a2-3)Gal(b1-3)[Fuc(a1-4)]GlcNAc(b1-3)Gal(b1-4)[Fuc(a1-3)]GlcNAc
How it was run: as §1

[19] = target: Neu5Ac(a2-3)Gal(b1-3)[GlcNAc(b1-6)]GalNAc
How it was run: as §1

[20] = target: Neu5Ac(a2-3)Gal(b1-3)[Neu5Ac(a2-6)]GalNAc
How it was run: as §1

[21] = target: Neu5Ac(a2-3)Gal(b1-3)[Neu5Ac(a2-6)]GlcNAc(b1-3)[Fuc(a1-3)[Gal(b1-4)]GlcNAc(b1-6)]Gal(b1-4)Glc
How it was run: as §1

[22] = target: Neu5Ac(a2-3)Gal(b1-3)]Neu5Ac(a2-3)Gal(b1-4)]GlcNAc
How it was run: as §1

Neu5Ac(a2-3)Gal(b1-4)Glc = target: Neu5Ac(a2-3)Gal(b1-4)Glc
How it was run: as §1

[23] = target: Neu5Ac(a2-3)Gal(b1-4)GlcNAc
How it was run: as §1

[24] = target: Neu5Ac(a2-3)Gal(b1-4)GlcNAc(b1-2)Man
How it was run: as §1

[25] = target: Neu5Ac(a2-3)Gal(b1-4)GlcNAc(b1-2)Man(a1-3)[GlcNAc(b1-4)][Neu5Ac(a2-3)Gal(b1-4)GlcNAc(b1-2)Man(a1-6)]Man(b1-4)GlcNAc(b1-4)GlcNAc
How it was run: as §1

[26] = target: Neu5Ac(a2-3)Gal(b1-4)GlcNAc(b1-2)Man(a1-3)[Neu5Ac(a2-3)Gal(b1-4)GlcNAc(b1-2)Man(a1-6)]Man(b1-4)GlcNAc(b1-4)GlcNAc
How it was run: as §1

[27] = target: Neu5Ac(a2-3)Gal(b1-4)GlcNAc(b1-2)Man(a1-3)[Neu5Ac(a2-3)Gal(b1-4)GlcNAc(b1-2)Man(a1-6)]Man(b1-4)GlcNAc(b1-4)[Fuc(a1-6)]GlcNAc
How it was run: as §1

[28] = target: Neu5Ac(a2-3)Gal(b1-4)GlcNAc(b1-2)Man(a1-3)[Neu5Ac(a2-6)Gal(b1-4)GlcNAc(b1-2)Man(a1-6)]Man(b1-4)GlcNAc(b1-4)GlcNAc
How it was run: as §1

[29] = target: Neu5Ac(a2-3)Gal(b1-4)GlcNAc(b1-2)[Neu5Ac(a2-3)Gal(b1-4)GlcNAc(b1-4)]Man(a1-3)[GlcNAc(b1-4)][Neu5Ac(a2-3)Gal(b1-4)GlcNAc(b1-2)[Neu5Ac(a2-3)Gal(b1-4)GlcNAc(b1-6)]Man(a1-6)]Man(b1-4)GlcNAc(b1-4)GlcNAc
How it was run: as §1

[30] = target: Neu5Ac(a2-3)Gal(b1-4)GlcNAc(b1-2)[Neu5Ac(a2-3)Gal(b1-4)GlcNAc(b1-4)]Man(a1-3)[GlcNAc(b1-4)][Neu5Ac(a2-3)Gal(b1-4)GlcNAc(b1-4)Man(a1-6)]Man(b1-4)GlcNAc(b1-4)GlcNAc
How it was run: as §1

[31] = target: Neu5Ac(a2-3)Gal(b1-4)GlcNAc(b1-2)[Neu5Ac(a2-3)Gal(b1-4)GlcNAc(b1-6)]Man(a1-6)[Neu5Ac(a2-3)Gal(b1-4)GlcNAc(b1-2)Man(a1-3)]Man(b1-4)GlcNAc(b1-4)GlcNAc
How it was run: as §1

[32] = target: Neu5Ac(a2-3)Gal(b1-4)GlcNAc(b1-2)[Neu5Ac(a2-3)Gal(b1-4)GlcNAc(b1-6)]Man(a1-6)[Neu5Ac(a2-3)Gal(b1-4)GlcNAc(b1-2)Man(a1-3)][GlcNAc(b1-4)]Man(b1-4)GlcNAc(b1-4)GlcNAc
How it was run: as §1

[33] = target: Neu5Ac(a2-3)Gal(b1-4)GlcNAc(b1-3)Gal
How it was run: as §1

[34] = target: Neu5Ac(a2-3)Gal(b1-4)GlcNAc(b1-3)Gal(b1-3)GlcNAc
How it was run: as §1

[35] = target: Neu5Ac(a2-3)Gal(b1-4)GlcNAc(b1-3)Gal(b1-4)GlcNAc
How it was run: as §1

[36] = target: Neu5Ac(a2-3)Gal(b1-4)GlcNAc(b1-3)Gal(b1-4)GlcNAc(b1-2)Man(a1-3)[Neu5Ac(a2-3)Gal(b1-4)GlcNAc(b1-3)Gal(b1-4)GlcNAc(b1-2)Man(a1-6)]Man(b1-4)GlcNAc(b1-4)GlcNAc
How it was run: as §1

[37] = target: Neu5Ac(a2-3)Gal(b1-4)GlcNAc(b1-3)Gal(b1-4)GlcNAc(b1-3)Gal(b1-4)GlcNAc
How it was run: as §1

[38] = target: Neu5Ac(a2-3)Gal(b1-4)GlcNAc(b1-3)Gal(b1-4)GlcNAc(b1-3)Gal(b1-4)GlcNAc(b1-2)Man(a1-3)[Neu5Ac(a2-3)Gal(b1-4)GlcNAc(b1-3)Gal(b1-4)GlcNAc(b1-3)Gal(b1-4)GlcNAc(b1-2)Man(a1-6)]GalNAc
How it was run: as §1

[39] = target: Neu5Ac(a2-3)Gal(b1-4)GlcNAc(b1-3)Gal(b1-4)GlcNAc(b1-3)GalNAc
How it was run: as §1

[40] = target: Neu5Ac(a2-3)Gal(b1-4)GlcNAc(b1-3)Gal(b1-4)GlcNAc(b1-3)[Neu5Ac(a2-3)Gal(b1-4)GlcNAc(b1-3)Gal(b1-4)GlcNAc(b1-6)]GalNAc
How it was run: as §1

[41] = target: Neu5Ac(a2-3)Gal(b1-4)GlcNAc(b1-3)Gal(b1-4)GlcNAc(b1-6)[Gal(b1-3)]GalNAc
How it was run: as §1

[42] = target: Neu5Ac(a2-3)Gal(b1-4)GlcNAc(b1-3)Gal(b1-4)[Fuc(a1-3)]GlcNAc
How it was run: as §1

[43] = target: Neu5Ac(a2-3)Gal(b1-4)GlcNAc(b1-3)GalNAc
How it was run: as §1

[44] = target: Neu5Ac(a2-3)Gal(b1-4)GlcNAc(b1-3)[Neu5Ac(a2-3)Gal(b1-4)GlcNAc(b1-6)]GalNAc
How it was run: as §1

B1: EULS2 M2 (Oryza sativa) (protein)
chain: MVYCRANPNYAMTARNGAVVLAPANPKDEYQHWIKDMRWSTSIKDEEGYPAFALVNKATGQAIKHSLGQSHPVRLVPYNPEVMDESVLWTESRDVGNGFRCIRMVNNIYLNFDAFHGDKYHGGVRDGTDIVLWKLCEGDSQRWKIQPYYILEQKLISEEDLNSAVDHHHHHH
[1]
  glycan array binding signal (z-score): -0.21
[2]
  glycan array binding signal (z-score): 0.02
[3]
  glycan array binding signal (z-score): -0.522
[4]
  glycan array binding signal (z-score): -0.303
[5]
  glycan array binding signal (z-score): -0.012
[6]
  glycan array binding signal (z-score): -0.24
[7]
  glycan array binding signal (z-score): -0.173
[8]
  glycan array binding signal (z-score): 0.02
[9]
  glycan array binding signal (z-score): -0.092
[10]
  glycan array binding signal (z-score): -0.491
[11]
  glycan array binding signal (z-score): -0.059
[12]
  glycan array binding signal (z-score): -0.451
[13]
  glycan array binding signal (z-score): -0.656
[14]
  glycan array binding signal (z-score): -0.569
[15]
  glycan array binding signal (z-score): -0.495
[16]
  glycan array binding signal (z-score): -0.545
[17]
  glycan array binding signal (z-score): 0.084
[18]
  glycan array binding signal (z-score): -0.548
[19]
  glycan array binding signal (z-score): -0.206
[20]
  glycan array binding signal (z-score): -0.48
[21]
  glycan array binding signal (z-score): -0.432
[22]
  glycan array binding signal (z-score): -0.119
Neu5Ac(a2-3)Gal(b1-4)Glc
  glycan array binding signal (z-score): -0.252
[23]
  glycan array binding signal (z-score): -0.584
[24]
  glycan array binding signal (z-score): 0.628
[25]
  glycan array binding signal (z-score): -0.379
[26]
  glycan array binding signal (z-score): 0.365
[27]
  glycan array binding signal (z-score): -0.323
[28]
  glycan array binding signal (z-score): 0.097
[29]
  glycan array binding signal (z-score): -0.279
[30]
  glycan array binding signal (z-score): -0.387
[31]
  glycan array binding signal (z-score): 0.257
[32]
  glycan array binding signal (z-score): -0.623
[33]
  glycan array binding signal (z-score): 0.295
[34]
  glycan array binding signal (z-score): -0.404
[35]
  glycan array binding signal (z-score): -0.644
[36]
  glycan array binding signal (z-score): -0.051
[37]
  glycan array binding signal (z-score): -0.585
[38]
  glycan array binding signal (z-score): -0.26
[39]
  glycan array binding signal (z-score): -0.327
[40]
  glycan array binding signal (z-score): -0.484
[41]
  glycan array binding signal (z-score): -0.247
[42]
  glycan array binding signal (z-score): -0.328
[43]
  glycan array binding signal (z-score): -0.581
[44]
  glycan array binding signal (z-score): -0.255
